Results on 22 molecules are retold here after article PMC12136788.

This is one part of the list.

T1: UNK ZnF1-3 (human, UniProt Q9C0B0 31-174)
T1 sequence: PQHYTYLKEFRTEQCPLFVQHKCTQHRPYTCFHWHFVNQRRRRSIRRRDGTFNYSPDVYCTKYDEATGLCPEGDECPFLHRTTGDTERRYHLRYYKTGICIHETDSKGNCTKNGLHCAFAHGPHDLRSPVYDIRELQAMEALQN

B1: chr3:169712149:169712150:+_ENSG00000008952_ENST00000337002|hu_mus|FALSE|FALSE (ssRNA)
RNA: GGGAGUUCUACAGUCCGACGAUCCAAACACAAGAAGAGAAACAGCCUAAAGGAGGAUGAAGACCUAUAUAUCCAUCACCUACUAACUACAAAGCAAAACCACCGUGUGACUAAAGGAAAAUCACUCACUGCUCACUGGGGUGUCAACAGAGGAUUGAGCAUCA
B2: chr17:64801638:64801639:+_ENSG00000154229_ENST00000413366|hu_mus|hu_hu_hu_mus_False|8_38 (ssRNA)
RNA: GGGAGUUCUACAGUCCGACGAUCUAUAUAUAUAUAUACAUAUGUACACAUAUAUAGUAAAACCCUAGUUAAACGUGUAAAGUAGCCAUUCAUUUUUGAAAUUUUAUCUACAUUAAAAAAUUAAUAUAUCUGAUACAGUGCCAGCAACAGAGGAUUGAGCAUCA
B3: chr13:100201707:100201708:-_ENSMUSG00000052727_ENSMUST00000064762|mus_hu|FALSE|FALSE (ssRNA)
RNA: GGGAGUUCUACAGUCCGACGAUCCUGACUGACAUCUAUUUGUGUGGGAGAAACAUCUCCUAAUUUCCUUUCAUCCAGAGCCAGUGCUGGUUGAGAACUCAUGGCUUCAACAUCAUCAGUUUUCUUUUCUUGGCCAAAGUCUUCCAACAGAGGAUUGAGCAUCA
B4: chr19:16212804:16212805:+_ENSG00000167460_ENST00000300933|hu_mus|hu_hu_hu_mus_False|38_68 (ssRNA)
RNA: GGGAGUUCUACAGUCCGACGAUCAACAAUUCUGGAGUGAAGGAAAGAUGUAACAUGGAACAGCAUUCCAUCUAUUACAGAAGGCACAUGGGCAACAAUGACUAUUUCAGCAUUCUCGCUUGGAAUGCUUAAAGACAAUCUGUUCAACAGAGGAUUGAGCAUCA
B5: chr1:109605286:109605287:-_ENSG00000197780_ENST00000461096|hu_mus|hu_hu_hu_mus_True|1_18 (ssRNA)
RNA: GGGAGUUCUACAGUCCGACGAUCAAGUUUCAGAGUAACAUUCAGUAACCUCUUUAAAUGCAAUUAUCCUUAUUAUAAGCUAAGCAGAAUAAUAAUUUAAUACCGUAAGUGAACUACCACAAAACCUUGAACCGCGAAACUACACAACAGAGGAUUGAGCAUCA
B6: chr7:141445308:141445309:+_ENSG00000106028_ENST00000265304|hu_hu|hu_hu_hu_mus_False|58_68 (ssRNA)
RNA: GGGAGUUCUACAGUCCGACGAUCUAUGAUUGUUGUUGCUUGCCGCCUCACAUUGUUUUUAUCCAUGUAUUCACCAUAGUCUAUUUUCCCUUCCACAAAUAUACGAGCCCCCUUUUUCACAUACUGAUAUGCCACAUCUCUGAGCAACAGAGGAUUGAGCAUCA
B7: chr14:89327608:89327609:+_ENSG00000165533_ENST00000346301|hu_hu|motif|central (ssRNA)
RNA: GGGAGUUCUACAGUCCGACGAUCUUCCUCAUAGAUUCUUGCAAUUCCACAGAGCAGGGUUACUUCUCCUGGAAACUUAUCGGAGCCUUGUUUGAAAAGAUUUAAAGCAGUCACAGGUUGAUCCAAUGAGACAUAAACUUUUGCCAACAGAGGAUUGAGCAUCA
B8: chr2:232320318:232320319:-_ENSG00000115053_ENST00000322723|hu_hu|hu_hu_hu_mus_True|48_48 (ssRNA)
RNA: GGGAGUUCUACAGUCCGACGAUCACUAUUAAAGUCUACAAAACCAAACCCUUUGGAAGAACCAGUUUCCCGAUCAGUGACUAUUCUUGCCCGAACGGAGCCCUCAAAUGAUUCUUUUAAGGUCUCUUCAGUGGUAUCCUCAGACAACAGAGGAUUGAGCAUCA
B9: 242173309_242174586_3446_CDS_ENSG00000115677_ENST00000391976|human|control|control (ssRNA)
RNA: GGGAGUUCUACAGUCCGACGAUCCUUUCUCCCGAUAAUCUUGGGAUGGUAUUUGGGGUCUACAGUGACACUCAGCUUAAAACUCCUUAAAGCCCGGUCCUCCUGCUCGGCCUGUAGCUCCUUCACACGCUCCAGCAGUCCAGCCAACAGAGGAUUGAGCAUCA
B10: chr22:19452774:19452775:-_ENSG00000070010_ENST00000399523|hu_hu|hu_hu_hu_mus_False|98_98 (ssRNA)
RNA: GGGAGUUCUACAGUCCGACGAUCCUUCUCAUUGUAGUUGAUGGCAAUCACAUCUCCAGUCGUCAGACAGGCGAAGUUUCUCAAUGCAUUUUCUAAUACCGCUUUAGGGUUGGUAAUAUCCAGGAAGUCUGGGCUCUGAGGCUGCAACAGAGGAUUGAGCAUCA
B11: chr3:150459880:150459881:-_ENSG00000181788_ENST00000312960|hu_mus|motif|central (ssRNA)
RNA: GGGAGUUCUACAGUCCGACGAUCGGAAGAUGUACUGAAUAAAACAUCUAUUAAAAAACCUUUAUUAAACAUAGAGCGCGGUGCCCAAAUAACUUCCCAGGGUUAGGAAAGCCUCCUGGAGCCUCACUGACAGCAUGUAGAUAUCAACAGAGGAUUGAGCAUCA
B12: chr11:87793471:87793472:-_ENSMUSG00000020483_ENSMUST00000020775|mus_mus|mus_mus_mus_hu_False|78_88 (ssRNA)
RNA: GGGAGUUCUACAGUCCGACGAUCUGGACUUGAAAAUAAAAGAAUAAGCUAGAUUUCCCCACCCCUUACAUUGUCAACCCUACACGAGAGUUUUGAAGGCGACUCAUGAAAAUCAGCAGCUCAAACGGCAAUGACCACCCCACCCAACAGAGGAUUGAGCAUCA
B13: chr2:217001844:217001845:+_ENSG00000079246_ENST00000392132|hu_hu|hu_hu_hu_mus_False|1_98 (ssRNA)
RNA: GGGAGUUCUACAGUCCGACGAUCACCAACUUGAGGAUUAGCUCUUUUGUCAUAAGCAUAUCGGACGAUGGCGACCAUGUUUAACUCAUCCAAAGCAUGAACGAGAGAGGAAAGGGCAACAGCUGCCGCCUCAUCAUCUCUUGCCAACAGAGGAUUGAGCAUCA
B14: chr2:132618855:132618856:+_ENSMUSG00000027350_ENSMUST00000028826|mus_mus|motif|central (ssRNA)
RNA: GGGAGUUCUACAGUCCGACGAUCUUCAGGUUCUUCUUCUGAAGCCCUGUAGUGAGCUAGAUGGUGACUCCUUUUUUCCCCGGAACGGACUGUGGCCACAUCUGCCUCCUUGGACUCCUUGGGAGAGGGUCUCCUUUCCUCAGACAACAGAGGAUUGAGCAUCA
B15: 101445554_101445674_1705_3pUTR_ENSMUSG00000001175_ENSMUST00000110082|mouse|control|control (ssRNA)
RNA: GGGAGUUCUACAGUCCGACGAUCGUCUGGUUUCAGGAGUUGUGGCUAGAGAACCUGGUGGGAAAUCCAGCUUGCACUGGAUGUUGCGUGUCUCUGUGUAUGCUGACCUCCCCUCCAGCGGCCUUGGCCUUGUCCCCCUUCCAACAACAGAGGAUUGAGCAUCA
B16: chr19:8913615:8913616:-_ENSMUSG00000071658_ENSMUST00000096259|mus_hu|mus_mus_mus_hu_False|58_108 (ssRNA)
RNA: GGGAGUUCUACAGUCCGACGAUCAGGGGGGCACCAACUUCUGCCUGAAAUGGGUGCCCCACCCAGUAGGGAGUUGCAGCUAAAAAUAUCUGAUGCAGAAGCAGUGACUAUACGAAAGGAGGCCCCUGGGGAGGGCCAGGCCAGCAACAGAGGAUUGAGCAUCA
B17: chrX:71549762:71549763:+_ENSMUSG00000019087_ENSMUST00000019231|mus_mus|mus_mus_mus_hu_False|1_18 (ssRNA)
RNA: GGGAGUUCUACAGUCCGACGAUCAAACCCGUGUACUUCUUAUUGUUAGCACAACAUCACCAGAAAACGAUAACGACAGCCAAGCAGGACAGACAGUUAAGUAGUACUUCCACACUCCGCAAAUUCAGGAGCCCUAUAGUUCAUCAACAGAGGAUUGAGCAUCA
B18: chr1:39494564:39494565:+_ENSG00000168653_ENST00000372967|hu_hu|hu_hu_hu_mus_True|48_58 (ssRNA)
RNA: GGGAGUUCUACAGUCCGACGAUCAUGCAUUCGCCUCAUCGUUUUGUACCGAAGCAAGCACUCUUCGAAGUCAUCGAAUUCUAUCUUGCACUCUUUCUUCGCCCGGGUCCCACCGAUCCCGUGUGCACACUCUAUCCACUCUUUCAACAGAGGAUUGAGCAUCA
B19: 156574219_156574339_2710_ncRNA_ENSMUSG00000061689_ENSMUST00000127944|mouse|control|control (ssRNA)
RNA: GGGAGUUCUACAGUCCGACGAUCCGCUCAUGUGUCCACCCACCUGCCCCGCCCAGCCCCCACACCUGAGCCACCACCCACACCCACACCCGGCUUGGUUAUUAGAAAUCCAGCAAGGAGAAGUGGGUUAGGGAGAGCAGGAGACAACAGAGGAUUGAGCAUCA
B20: chr4:25749455:25749456:-_ENSG00000091490_ENST00000264868|hu_hu|hu_hu_hu_mus_False|28_108 (ssRNA)
RNA: GGGAGUUCUACAGUCCGACGAUCGCAAGCACUAGGAUAGAAAAAUCCACAGGGGGAAAAAAUGUAAACCAAUGUACAAUGUUAUCGCCUUCCCUGUGUGUGGAGUGACAAACAAUUGGCUCCUUCUAGCUGCUGGAUUUGGGACAACAGAGGAUUGAGCAUCA
B21: chr2:163839756:163839757:+_ENSMUSG00000018326_ENSMUST00000018470|mus_hu|FALSE|FALSE (ssRNA)
RNA: GGGAGUUCUACAGUCCGACGAUCUUUCAUUUUCAAGUAGAACACCUUACUUUCUGGUUGUGUAGCAUUGGGAAUAAGAUAUUUGUCCAACAGCUCCAGAACAUCAUUGCAGAUGUCCUGCAGUUCUGCCUCUAUCUUCUCACGCAACAGAGGAUUGAGCAUCA
B22: chr12:16048344:16048345:+_ENSG00000023734_ENST00000419869|hu_hu|hu_hu_hu_mus_True|8_98 (ssRNA)
RNA: GGGAGUUCUACAGUCCGACGAUCAGAUCGUCCAUAAGUUAUAACCAAAAUCUCUCCUUCAGGAAUAUACUCCAUGCUGCUAACAGACAUAUUAAAAUUCAGAGAUUUCACUUCUGUCAUUGUGGCAUGAUCCCAAAGCCGAACCAACAGAGGAUUGAGCAUCA

The target of this assay is T1, UNK ZnF1-3. Description: nsRBNS (natural sequence RNA bind-n-seq); RBNS binding buffer (assumed for nsRBNS): 25 mM Tris pH 7.5, 150 mM KCl, 3 mM MgCl2, 0.01% Triton X-100, 500 ug/ml BSA, 20 U/ml SUPERase-In, 4 C; UNK is unkempt and MSI1 is Musashi-1; names of the RNAs are library labels; protein concentration not given here; high values mean tight binding.
In turn, B1 displayed a binding signal of 2.31 enrichment R.

B2 showed a binding signal of 1.68 enrichment R.

In turn, B3 came in with a binding signal of 0.624 enrichment R.

On to B4, for which the binding signal was 1.03 enrichment R.

On to B5, for which the binding signal turned out to be 0.692 enrichment R.

B6 returned a binding signal of 0.622 enrichment R.

In turn, B7 returned a binding signal of 1.12 enrichment R.

B8: the binding signal was found to be 0.38 enrichment R.

B9 registered a binding signal of 1.56 enrichment R.

B10 returned a binding signal of 0.855 enrichment R.

Turning to B11, the binding signal was found to be 1.72 enrichment R.

Molecule B12 registered a binding signal of 1.67 enrichment R.

Molecule B13 had a binding signal of 1.65 enrichment R.

B14 gave a binding signal of 0.662 enrichment R.

For B15, the binding signal is 0.524 enrichment R.

For B16, the binding signal amounted to 0.908 enrichment R.

In turn, B17 registered a binding signal of 1.54 enrichment R.

Regarding B18, the binding signal was determined as 0.662 enrichment R.

The molecule B19 had a binding signal of 0.695 enrichment R.

Take B20: the binding signal is 1.38 enrichment R.

Take B21: the binding signal worked out at 0.562 enrichment R.

Regarding B22, the binding signal was 1.34 enrichment R.
